Reference: US20260242437A1 (BEIJING MABWORKS BIOTECH, published 2026)

T1: human IL-2Rαβγ (high-affinity IL-2 receptor) on cells (human, UniProt P01589 22-272; P14784 27-551; P31785 23-369)
T1 sequence (looked up) 1: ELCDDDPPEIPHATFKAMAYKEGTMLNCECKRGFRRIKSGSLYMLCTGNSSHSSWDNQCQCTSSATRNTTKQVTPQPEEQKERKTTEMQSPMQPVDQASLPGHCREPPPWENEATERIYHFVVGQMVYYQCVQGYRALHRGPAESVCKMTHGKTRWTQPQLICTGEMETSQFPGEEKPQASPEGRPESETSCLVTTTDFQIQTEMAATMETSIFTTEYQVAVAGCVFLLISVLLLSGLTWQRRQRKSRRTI
T1 sequence (looked up) 2: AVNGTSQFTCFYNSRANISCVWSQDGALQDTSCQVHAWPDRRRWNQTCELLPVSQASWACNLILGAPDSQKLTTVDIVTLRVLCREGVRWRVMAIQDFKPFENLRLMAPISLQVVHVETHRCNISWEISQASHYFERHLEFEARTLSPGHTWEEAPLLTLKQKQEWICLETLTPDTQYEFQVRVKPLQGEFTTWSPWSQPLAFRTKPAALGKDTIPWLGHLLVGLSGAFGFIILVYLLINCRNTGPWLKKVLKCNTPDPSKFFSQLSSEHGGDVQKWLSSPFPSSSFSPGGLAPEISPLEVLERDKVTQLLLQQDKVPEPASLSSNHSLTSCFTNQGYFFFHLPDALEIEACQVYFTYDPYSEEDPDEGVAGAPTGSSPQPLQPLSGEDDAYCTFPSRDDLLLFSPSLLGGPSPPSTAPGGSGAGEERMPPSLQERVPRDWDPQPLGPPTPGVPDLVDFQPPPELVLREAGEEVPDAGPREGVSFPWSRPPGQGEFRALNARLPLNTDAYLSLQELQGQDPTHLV
T1 sequence (looked up) 3: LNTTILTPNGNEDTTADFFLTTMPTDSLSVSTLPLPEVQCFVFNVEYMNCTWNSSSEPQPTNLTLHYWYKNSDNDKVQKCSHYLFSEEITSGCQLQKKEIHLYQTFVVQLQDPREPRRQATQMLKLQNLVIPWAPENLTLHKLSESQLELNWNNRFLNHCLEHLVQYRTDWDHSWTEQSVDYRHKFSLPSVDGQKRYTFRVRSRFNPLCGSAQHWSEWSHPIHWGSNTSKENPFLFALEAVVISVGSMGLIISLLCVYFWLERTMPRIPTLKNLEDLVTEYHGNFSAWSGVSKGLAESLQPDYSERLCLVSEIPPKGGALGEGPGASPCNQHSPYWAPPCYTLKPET

T2: recombinant human IL-2Rβγ protein (human, UniProt P14784 27-240; P31785 23-262)
T2 construct: Bought protein
T2 sequence (looked up) 1: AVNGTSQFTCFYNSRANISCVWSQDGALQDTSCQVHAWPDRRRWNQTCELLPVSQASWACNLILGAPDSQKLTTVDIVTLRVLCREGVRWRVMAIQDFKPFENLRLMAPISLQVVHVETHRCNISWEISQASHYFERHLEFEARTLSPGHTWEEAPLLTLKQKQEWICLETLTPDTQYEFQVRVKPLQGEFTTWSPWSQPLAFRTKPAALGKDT
T2 sequence (looked up) 2: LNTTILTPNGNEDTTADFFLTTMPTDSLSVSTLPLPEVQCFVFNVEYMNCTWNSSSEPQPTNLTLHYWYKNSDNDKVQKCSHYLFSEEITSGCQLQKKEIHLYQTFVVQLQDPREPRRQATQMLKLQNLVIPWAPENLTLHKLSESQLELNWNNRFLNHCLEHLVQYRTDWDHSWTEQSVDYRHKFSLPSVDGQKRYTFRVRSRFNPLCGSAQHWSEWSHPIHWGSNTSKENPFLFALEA

T3: human IL-2Rβγ on CD8+ effector T cells (human, UniProt P14784 27-551; P31785 23-369)
T3 construct: whole, on cells; the assay was on primary human CD8+ effector T cells
T3 sequence (looked up) 1: T1 sequence (looked up) 2
T3 sequence (looked up) 2: T1 sequence (looked up) 3

B1: bispecific recombinant protein 309-4 (other)
heavy 1: QVQLVQSGVEVKKPGASVKVSCKASGYTFTNYYMYWVRQAPGQGLEWMGGINPSNGGTNFNEKFKNRVTLTTDSSTTTAYMELKSLQFDDTAVYYCARRDYRFDMGFDYWGQGTTVTVSSASTKGPSVFPLAPSSKSTSGGTAALGCLVKDYFPEPVTVSWNSGALTSGVHTFPAVLQSSGLYSLSSVVTVPSSSLGTQTYICNVNHKPSNTKVDKKVEPKSCDKTHTCPPCPAPEAAGGPSVFLFPPKPKDTLMISRTPEVTCVVVDVSHEDPEVKFNWYVDGVEVHNAKTKPREEQYNSTYRVVSVLTVLHQDWLNGKEYKCKVSNKALAAPIEKTISKAKGQPREPQVYTLPPSRDELTKNQVSLSCAVKGFYPSDIAVEWESNGQPENNYKTTPPVLDSDGSFFLVSKLTVDKSRWQQGNVFSCSVMHEALHNHYTQKSLSLSP
heavy 2: QVQLVQSGVEVKKPGASVKVSCKASGYTFTNYYMYWVRQAPGQGLEWMGGINPSNGGTNFNEKFKNRVTLTTDSSTTTAYMELKSLQFDDTAVYYCARRDYRFDMGFDYWGQGTTVTVSSASTKGPSVFPLAPSSKSTSGGTAALGCLVKDYFPEPVTVSWNSGALTSGVHTFPAVLQSSGLYSLSSVVTVPSSSLGTQTYICNVNHKPSNTKVDKKV[human IgG1 Fc with L234A L235A P329A T366W (EU numbers) omitted here]GGGGSGGGGSGGGGSAPASSSTKKTQLQLEHLLLDLQMILNGINNYKNPLTRMLTAKFRMPKKATELKHLQCLEEELKPLEEVLNLAQSKNFHLRPRDLISDINVIVLELKGSETTFMCEYADETATIVEFLNRWITFSQSIISTLT
light: EIVLTQSPATLSLSPGERATLSCRASKGVSTSGYSYLHWYQQKPGQAPRLLIYLASYLESGVPARFSGSGSGTDFTLTISSLEPEDFAVYYCQHSRDLPLTFGGGTKVEIKRTVAAPSVFIFPPSDEQLKSGTASVVCLLNNFYPREAKVQWKVDNALQSGNSQESVTEQDSKDSTYSLSSTLTLSKADYEKHKVYACEVTHQGLSSPVTKSFNRGEC
B2: bispecific recombinant protein 309-5 (other)
heavy 1: B1 heavy 1
heavy 2: QVQLVQSGVEVKKPGASVKVSCKASGYTFTNYYMYWVRQAPGQGLEWMGGINPSNGGTNFNEKFKNRVTLTTDSSTTTAYMELKSLQFDDTAVYYCARRDYRFDMGFDYWGQGTTVTVSSASTKGPSVFPLAPSSKSTSGGTAALGCLVKDYFPEPVTVSWNSGALTSGVHTFPAVLQSSGLYSLSSVVTVPSSSLGTQTYICNVNHKPSNTKVDKKV[human IgG1 Fc with L234A L235A P329A T366W (EU numbers) omitted here]GGGGSGGGGSGGGGSAPASSSTKKTQLQLEHLLLDLQMILNGINNYKNPLTRMLTAKFRMPKKATELKHLQCLEEELKPLEEVLNLAQSKNFHLRPRDLISNINVIVLELKGSETTFMCEYADETATIVEFLNRWITFSTSIISTLT
light: B1 light
B3: bispecific recombinant protein 309-6 (other)
heavy 1: B1 heavy 1
heavy 2: QVQLVQSGVEVKKPGASVKVSCKASGYTFTNYYMYWVRQAPGQGLEWMGGINPSNGGTNFNEKFKNRVTLTTDSSTTTAYMELKSLQFDDTAVYYCARRDYRFDMGFDYWGQGTTVTVSSASTKGPSVFPLAPSSKSTSGGTAALGCLVKDYFPEPVTVSWNSGALTSGVHTFPAVLQSSGLYSLSSVVTVPSSSLGTQTYICNVNHKPSNTKVDKKV[human IgG1 Fc with L234A L235A P329A T366W (EU numbers) omitted here]GGGGSGGGGSGGGGSAPASSSTKKTQLQLEHLLLLLQMILNGINNYKNPLTRMLTAKFRMPKKATELKHLQCLEEELKPLEEVLNLAQSKNFHLRPRDLISNINVIVLELKGSETTFMCEYADETATIVEFLNRWITFSQSIISTLT
light: B1 light
B4: G12: Fc-linker-IL2-G12 (Fc fusion)
chain: [human IgG1 Fc omitted here]GGGSGGGGSGGGGSAPASSSTKKTQLQLEHLLLDLQMILNGINNYKNLTRMLTFKFYMPKKATELKHLQCLEEELKPLEEVLNLAQSKNFHLRPRDLISNINVIVLELKGSETTFMCEYADETATIVEFLNRWITFSQSIISTLT
notes: IL-2 part IL2-G12 (delP34-K35)
B5: G13: Fc-linker-IL2-G13 (Fc fusion)
chain: [human IgG1 Fc omitted here]GGGSGGGGSGGGGSAPASSSTKKTQLQLEHLLLDLQMILNGINNYKNLTRMLTAKFYMPKKATELKHLQCLEEELKPLEEVLNLAQSKNFHLRPRDLISNINVIVLELKGSETTFMCEYADETATIVEFLNRWITFSQSIISTLT
notes: IL-2 part IL2-G13 (delP34-K35, F42A)

Columns and labels:
[1] = target: human PD-1 (human, UniProt Q15116 25-288); test: cell-based or functional assay
Sequence of UniProt Q15116 (Q15116 25-288 limits assumed): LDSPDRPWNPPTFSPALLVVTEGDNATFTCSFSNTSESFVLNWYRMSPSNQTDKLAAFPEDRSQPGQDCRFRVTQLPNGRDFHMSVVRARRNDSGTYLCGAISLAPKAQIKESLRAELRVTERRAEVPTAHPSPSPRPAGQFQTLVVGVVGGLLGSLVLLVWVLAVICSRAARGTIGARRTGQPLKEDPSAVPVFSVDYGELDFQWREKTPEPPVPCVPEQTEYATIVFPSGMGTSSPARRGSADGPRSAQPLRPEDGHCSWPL

[2] = target: T1, human IL-2Rαβγ (high-affinity IL-2 …); test: cell-based or functional assay
[3] = target: T2, recombinant human IL-2Rβγ protein; test: SPR (BIAcore 8K), bispecific protein captured by anti-human Fc on CM5, IL-2Rβγ in flow
[4] = target: T1, human IL-2Rαβγ (high-affinity IL-2 …); test: cell-based or functional assay; remark: listed apart in the source
[5] = target: T3, human IL-2Rβγ on CD8+ effector T cells; test: flow cytometry on primary human CD8+ effector T cells, PE goat anti-human IgG, MFI

Binder	EC50 (ng/mL)-PD1+ HEK Blue/IL-2 [1]	EC50 (ng/mL)-PD1- HEK-Blue/IL-2 [2]	Kd [3]	koff [3]	kon [3]	EC50 (nM), activation of HEK-Blue/IL-2 cells [4]	EC50 ratio of IL-2 variant-containing protein to WT [4]	binding result [5]
B1	0.171 ng/mL	11600 ng/mL	2.4 nM	0.000331 s⁻¹	138000 M⁻¹ s⁻¹	–	–	–
B2	6.37 ng/mL	9680 ng/mL	3.7 nM	0.000428 s⁻¹	116000 M⁻¹ s⁻¹	–	–	–
B3	166 ng/mL	–	56.6 nM	0.00763 s⁻¹	135000 M⁻¹ s⁻¹	–	–	–
B4	–	–	–	–	–	0.06 nM	5	binds
B5	–	–	–	–	–	0.204 nM	17	binds
